The whole screen tested about 39,000 compounds, of which about 220 (0.56%) showed activity. The list shows a part of the results.
test system: Escherichia coli K-12 BW25113; test: relative growth (OD600 normalised to plate interquartile mean) (fraction); higher = less growth inhibition, active = 0.2 or less; conditions: 50 µM; LB; incubation time: overnight (16-24 h)
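Also: static incubation at 37 °C against the wild-type strain, values averaged over two biological replicates.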

SMILES	relative growth
O=c1cc(O)nc[nH]1	inactive: 1.01
O=C(O)CCc1n[nH]c(=O)[nH]c1=O	inactive: 0.995
COc1ccc(NC(=O)N(C)C[C@H]2Oc3ccc(NS(C)(=O)=O)cc3C(=O)N([C@@H](C)CO)C[C@H]2C)cc1	inactive: 0.929
C[C@@H]1CCCCO[C@H](CN(C)C(=O)Cc2ccccc2)[C@@H](C)CN([C@@H](C)CO)C(=O)c2cc(NC(=O)C3CCCCC3)ccc2O1	inactive: 0.99
C[C@@H]1CN([C@H](C)CO)C(=O)Cc2cc(NC(=O)Nc3cccc4ccccc34)ccc2O[C@H]1CN(C)C(=O)Nc1ccc(F)cc1	inactive: 1.01
C[C@@H]1CCCCO[C@H](CN(C)Cc2ccccc2)[C@H](C)CN([C@@H](C)CO)C(=O)c2cc(NC(=O)Nc3ccccc3)ccc2O1	inactive: 0.997
COc1cccc(S(=O)(=O)N(C)C[C@@H]2Oc3cc(C#CCC(C)C)ccc3S(=O)(=O)N([C@@H](C)CO)C[C@H]2C)c1	inactive: 0.993
C[C@H]1CN([C@@H](C)CO)C(=O)c2cccc(NS(=O)(=O)c3ccc(F)cc3)c2O[C@H]1CN(C)Cc1ccncc1	inactive: 0.989
CCS(=O)(=O)N1C[C@]2(C1)CN([C@H](CO)c1[nH]c3cc(ccc3c12)OC)S(=O)(=O)c1ccc(cc1)C	inactive: 1.03
Cc1cccc(C)c1OCC(=O)NC(Cc1ccccc1)C(O)CC(Cc1ccccc1)NC(=O)C(C(C)C)N1CCCNC1=O (stereo not given)	inactive: 1.02
NCCCC[C@H](NC(=O)[C@@H](NC(=O)[C@H](Cc1c[nH]c2ccccc12)NC(=O)[C@H](CCCCN)NC(=O)[C@H](CCCCN)NC(=O)[C@H](Cc1c[nH]c2ccccc12)NC(=O)[C@H](Cc1c[nH]c2ccccc12)NC(=O)[C@H](CCCCN)NC(=O)[C@@H](N)CCCCN)C(c1ccccc1)c1ccccc1)C(N)=O	active: 0.149
C[C@@H]1CN([C@H](C)CO)C(=O)c2cccc(NC(=O)C3CC3)c2O[C@@H]1CN(C)Cc1ccc2c(c1)OCO2	inactive: 0.977
O=C(C[C@H]1CC[C@@H]2[C@H](COC[C@@H](O)CN2S(=O)(=O)c2ccc(Cl)cc2)O1)NCCN1CCCC1	inactive: 0.975
C[C@@H]1CN([C@H](C)CO)C(=O)c2cccc(NC(=O)C3CCCCC3)c2O[C@H]1CN(C)C(=O)Nc1ccc(C(F)(F)F)cc1	inactive: 0.954
C[C@H](CO)N1C[C@H](C)[C@@H](CN(C)Cc2ccccc2)OCCCC[C@H](C)Oc2ccc(NC(=O)CCC(F)(F)F)cc2C1=O	inactive: 0.999
C[C@H](CO)N1C[C@H](C)[C@H](CN(C)S(=O)(=O)c2ccc(C#N)cc2)Oc2ncc(C#Cc3ccccc3)cc2C1=O	inactive: 1.03
CC(C)NC(=O)Nc1ccc2c(c1)CC(=O)N([C@@H](C)CO)C[C@H](C)[C@H](CN(C)S(=O)(=O)c1cn(C)cn1)O2	inactive: 0.985
COC1=CC(C)C2CC3OC(=O)CC4C(C)=C(OC)C(=O)C(C2(C)C1=O)C34C (stereo not given)	inactive: 1.06
Cn1cnc(S(=O)(=O)N[C@H]2C=C[C@H](CC(=O)Nc3ccccc3)O[C@@H]2CO)c1	inactive: 0.992
Cc1ccc(S(=O)(=O)N(C)C[C@@H]2OCCCC[C@H](C)Oc3ccc(NC(=O)Nc4ccc(F)cc4)cc3C(=O)N([C@@H](C)CO)C[C@H]2C)cc1	inactive: 1.02
C[C@H](CO)N1C[C@H](C)[C@H](CN(C)Cc2ccc(-c3ccccc3)cc2)Oc2c(NC(=O)Nc3ccc(C(F)(F)F)cc3)cccc2C1=O	inactive: 1.03
Cc1ccc(S(=O)(=O)N(C)C[C@@H]2Oc3ccc(NS(=O)(=O)c4cccs4)cc3C(=O)N([C@@H](C)CO)C[C@H]2C)cc1	inactive: 1.03
COCC#Cc1cnc2c(c1)C(=O)N([C@@H](C)CO)C[C@H](C)[C@@H](CN(C)C(=O)Nc1cc(F)ccc1F)O2	inactive: 0.98
NC(=S)N/N=C/c1ccncc1	inactive: 0.961
CO[C@H]1CN(C)C(=O)c2ccc(NS(C)(=O)=O)cc2OC[C@H](C)N(C(=O)C2CCCCC2)C[C@@H]1C	inactive: 0.962
O=C(OC[C@]12O[C@H]1[C@@H](O)[C@@H]1C=CO[C@@H](O[C@@H]3O[C@H](CO)[C@@H](O)[C@H](O)[C@H]3O)[C@@H]12)c1ccccc1	inactive: 1.01
C[C@@H]1CN([C@@H](C)CO)C(=O)c2cccc(NS(=O)(=O)c3ccc(F)cc3)c2O[C@@H]1CN(C)S(=O)(=O)c1cccs1	inactive: 0.957
C=CC[C@H](CC(=O)NCCO)C(=O)N[C@@H](COC(=O)[C@H](CC=C)CC(=O)OC(C)(C)C)Cc1c[nH]c2ccccc12	inactive: 0.99
Cc1c(Cl)cccc1Nc1ncccc1C(=O)O	inactive: 1.01
COc1ccccc1C#Cc1ccc2c(c1)O[C@@H](CN(C)Cc1cccnc1)[C@@H](C)CN([C@H](C)CO)S2(=O)=O	inactive: 1.03
